Several values for one entry are separate records, joined by “and”; a condition that tells them apart may be missing. Equal entries are not always repeated. The campaign covered roughly 420,000 compounds. About 50,000 (12%) were called active. The shares of active, inactive and inconclusive entries below differ from those in the screen. The call rests on the fitted dose curve; in most records, active means well fitted inhibition curve with a large enough effect; inconclusive means small, poorly fitted or top-dose-only effect; inactive means flat fitted curve, though single readings scatter. Potencies beside an inconclusive call are fits to weak or partial responses and may not hold up.
assay: qHTS for Inhibitors of human tyrosyl-DNA phosphodiesterase 1 (TDP1): qHTS in cells in presence of CPT; conditions: chicken DT40 Tdp1-/-;hTDP1 cells + 20 nM CPT, ATP luminescence, 48 h; activity change, negative = growth inhibition: at 46.2 µM (top of the series) unless noted; further: nearly all actives have a fitted effect of over 55% in size
Outline: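 Chicken DT40 Tdp1-/- cells complemented with human TDP1, 400 cells/well, exposed to compounds plus 20 nM camptothecin for at least 48 h at 37 C; viability read as ATP content by CellTiter-Glo luminescence.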
On the % scale 0 is the no-effect control and ±100 the full control effect; potency means the concentration at half of the fitted maximal effect; tags describe the fitted curve by direction and shape.

SMILES	Potency	activity change, negative = growth inhibition
CCc1ccc(NC(=O)Cn2c(=O)n(CCCC(=O)NCc3ccccc3OC)c(=O)c3ccccc32)cc1	inactive	–
O=C(C1=C[C@@H](c2coc3ccccc3c2=O)C[C@@H](OCCCCO)O1)N1CCN(Cc2ccccc2)CC1	inconclusive: 29.1 µM [inhibitor, single point]	–
Cc1ccc(C)c(NC(=O)c2ccc(=O)n(Cc3ccc(F)cc3)c2)c1	–	inconclusive: -30.9% [inhibitor]
CC(C)c1ccc(NC(=O)C2CCN(c3ncnc4c3nc3n4CCCCC3)CC2)cc1	inconclusive: 25.9 µM [inhibitor, single point]	–
CN(CC1COc2ccccc2O1)C(=S)NC1CCCCC1 (configuration not stated)	inconclusive: 29.1 µM [inhibitor, single point]	–
CCN(C(=O)CN1C(=O)NC2(CCCc3ccccc32)C1=O)c1ccc(F)cc1 (configuration not stated)	inconclusive: 25.9 µM [inhibitor, single point]	–
COc1cccc(CNC(=O)c2cc(C3CC3)nc3c2cnn3C(C)C)c1	–	inconclusive: -32.2% [inhibitor]
O=C(Cc1cccs1)Nc1nnc(SCc2cccc3ccccc23)s1	inconclusive: 18.4 µM [inhibitor, partial curve]	–
O=C(N/N=C/c1cnc(N2CCCCC2)s1)c1ccc(C(F)(F)F)cc1	inconclusive: 29.1 µM [inhibitor, single point]	–
COc1ccc(C)cc1NC(=O)c1ccc2c(c1)N(Cc1cccc(Cl)c1)C(=O)c1ccccc1S2=O (configuration not stated)	inactive	–
CNC1CCCN(c2c(F)cc3c(=O)c(C(=O)O)cn(C4CC4)c3c2OC)C1 (configuration not stated)	inactive	–
Cc1ccc(S(=O)(=O)N2CCN(C(=O)N3CCCC3)CC2)cc1	inactive	–
CCOc1ccc(NC(=O)c2ccccc2C(=O)c2ccccc2)cc1OCC	inconclusive: 29.1 µM [inhibitor, single point]	–
Cc1ccc(C)c(CN2CCC(CNC(=O)Nc3ccc(C)c(F)c3)CC2)c1	inconclusive: 16.4 µM [inhibitor, single point]	–
COC(=O)c1cccc(NC(=O)Cc2nc(-c3ccccc3)sc2-c2ccc(C)cc2)c1	inconclusive: 23.1 µM [inhibitor, partial curve, poor fit]	–
CCCCN(CC)S(=O)(=O)c1ccc(C(=O)N=c2sc3cc(NC(C)=O)ccc3n2C)cc1	active: 8.2 µM	–
O=C(CCCc1ccccc1)NCCS(=O)(=O)N1CCN(c2ccc(F)cc2)CC1	inconclusive: 29.1 µM [inhibitor, single point]	–
COc1ccc2[nH]cc(S(=O)(=O)c3ccc(C)cc3)c2c1	inactive	–
CC(=O)N1c2ccc(S(=O)(=O)N3CCCCCC3)cc2CC1C(=O)NCc1cccc(F)c1 (configuration not stated)	inconclusive: 16.4 µM [inhibitor, single point]	–
c1cncc(-c2cc(-n3ccnc3)ncn2)c1	inconclusive: 23.1 µM [inhibitor, single point]	–
COCCNCCCOc1ccc(Cl)cc1Br	inconclusive: 29.1 µM [inhibitor, single point]	–
CC(Sc1nnc(-c2ccccc2F)n1C1CC1)C(=O)NCc1ccco1 (configuration not stated)	inconclusive: 29.1 µM [inhibitor, single point]	–
Cc1ccc(S(=O)(=O)c2nc(-c3cccs3)oc2SC(C)c2ccccc2)cc1 (configuration not stated)	inconclusive: 29.1 µM [inhibitor, single point]	–
O=C(CCc1ccncc1)NC1CCCc2c1cnn2-c1ccc(F)cc1F (configuration not stated)	inconclusive: 32.6 µM [inhibitor, single point]	–

SMILES	Potency	activity change, negative = growth inhibition
O=C(CN(Cc1ccccc1)S(=O)(=O)c1ccc(Br)cc1)NCc1ccco1	inactive	–
Cc1c(C(=O)Nc2ccccc2)oc2c1C(=O)CC(C)(C)C2	inactive	–
Fc1ccccc1CNC(=S)Nc1ccc(Cl)cc1	active: 20.6 µM	–
CC1CCN(C(=S)NC(=O)c2ccccc2)CC1	inconclusive: 29.1 µM [inhibitor, single point]	–
CCOCCc1nnc(NC(=O)c2cccs2)s1	inactive	–
O=C(NC(c1ccc(Cl)cc1)c1cnccn1)C1CCN(Cc2ccc(Cl)cc2)CC1 (configuration not stated)	inconclusive: 16.4 µM [inhibitor, single point]	–
COc1ccc(CN(C)CCn2cc(C(=O)N3CCSCC3)nn2)cc1C	inactive	–
CCOC(=O)c1sc(NC(=O)c2ccccc2)cc1C	inconclusive: 16.4 µM [inhibitor, single point]	–
Cc1ccc(OC/C(O)=C(\C#N)c2nc3ccccc3s2)cc1	inconclusive: 18.4 µM [inhibitor, single point]	–
O=C(CCN1C(=O)/C(=C/c2ccccc2Cl)SC1=S)NCCc1ccc(O)cc1	inconclusive: 18.4 µM [inhibitor, single point]	–
Cn1cncc1C#Cc1c(-c2ccsc2)sc2ccccc12	inconclusive: 29.1 µM [inhibitor, single point]	–
COC(=O)c1cc2cc(Cl)ccc2nc1SC	inactive	–
CCS(=O)(=O)N1CCc2cc(C(=O)N3CCN(c4ccccc4)CC3)ccc21	active: 16.4 µM	–
CCCCC(=O)Nc1cc(-c2nc3ccccc3o2)ccc1OC	inconclusive: 29.1 µM [inhibitor, single point]	–
Nc1ncc(Br)cc1S(=O)(=O)NCCC(=O)NCCc1ccccc1	inconclusive: 29.1 µM [inhibitor, single point]	–
CCOc1ccc(CC(=O)NCCS(=O)(=O)N2CCN(c3ccccc3OC)CC2)cc1	active: 11.6 µM	–
CCC(C)(C)NC(=O)C(c1ccc(F)cc1)N(CCOC)C(=O)CCC(=O)Nc1nccs1 (configuration not stated)	inactive	–
CCCC(=O)OCc1cnc(C)c2oc(=O)c(C(=O)Nc3ccc(F)cc3C)cc12	inconclusive: 29.1 µM [inhibitor, single point]	–
Oc1cccc(CN2CCOCC2)c1O	active: 25.9 µM	–
Cc1cccc(CNC(=O)C2CCN(S(=O)(=O)c3cccc4nonc34)CC2)c1	inactive	–
CC(C)=CCc1c(-c2ccc(O)cc2O)oc2c3c(cc(O)c2c1=O)OC(C)(C)C=C3	active: 20.6 µM	–
COc1ccc(C(=O)NC(=S)NNC(=O)c2ccccc2O)cc1	active: 14.6 µM	–
Cc1ccn2cc(C(=O)Nc3nnc(C)s3)nc2c1	inactive	–
Cc1ccc(C)c(NC(=O)C2CCCN2S(=O)(=O)c2ccc3c(c2)CCCC(=O)N3)c1 (configuration not stated)	inconclusive: 23.1 µM [inhibitor, partial curve]	–

SMILES	Potency	activity change, negative = growth inhibition
CCC1=Nc2cc(C(=O)N3CCC(C)CC3)ccc2Sc2ccc(C)cc21	active: 16.4 µM	–
COc1ccc(-c2noc(CNC(=O)c3ccc(OC)cc3OC)n2)cc1	inconclusive: 29.1 µM [inhibitor, single point]	–
CSc1nc(N)nc(SCC(=O)C(C)(C)C)c1C#N	inconclusive: 18.4 µM [inhibitor, single point]	–
CCOC(=O)CCN(Cc1cccs1)S(=O)(=O)c1ccc(Cl)cc1	inactive	–
CCNc1ccc(S(=O)(=O)N(C)C)cc1NCC(=O)Nc1c(F)cccc1F	inconclusive: 29.1 µM [inhibitor, single point]	–
COc1ccccc1NC(=O)c1oc2ccccc2c1NC(=O)C1CC1	inconclusive: 23.1 µM [inhibitor, single point]	–
CN1C(=O)C(O)(C2COC(C)(C)CC2=O)c2ccccc21 (configuration not stated)	active: 14.6 µM	–
CCN(C(=O)C1CCCN(c2nc(-c3ccc(OC)cc3)no2)C1)c1ccc(OC)cc1 (configuration not stated)	active: 16.4 µM	–
Cc1ccc(C(c2cc(Cl)c3cccnc3c2O)N2CCN(C)CC2)cc1 (configuration not stated)	inconclusive: 16.4 µM [inhibitor, single point]	–
CN1CCN(c2ncc3nc(-c4cccc(C#N)c4)c(=O)n(CCC#N)c3n2)CC1	inconclusive: 16.4 µM [inhibitor, partial curve]	–
Cc1ccc2nc(N3CCN(c4ccc(F)cc4)CC3)c3nnnn3c2c1	active: 7.31 µM	–
CN(C)c1ccc(/C=N/n2cnn(Cc3ccccc3Cl)c2=S)cc1	inconclusive: 29.1 µM [inhibitor, single point]	–
COc1ccc(NC(=S)NC(=O)/C=C/c2ccco2)c(OC)c1	inactive	–
Cc1ncoc1C(=O)NC1CCCc2c1cnn2-c1cc(F)cc(F)c1 (configuration not stated)	inactive	–
COc1cccc(-c2noc(COc3cccc(C)c3C)n2)c1	inactive	–
CCOC(=O)C1=C(C)OC(N)=C(C#N)C1c1cc(OC)c2c(c1)OCO2 (configuration not stated)	inconclusive: 29.1 µM [inhibitor, single point]	–
CCC(=O)c1ccc(OCC(=O)OCC(=O)Nc2cccc(S(=O)(=O)N3CCCC3)c2)cc1	inconclusive: 18.4 µM [inhibitor, single point]	–
COc1cc(OC)cc(C(=O)NC(=S)Nc2ccc3[nH]c(=O)[nH]c3c2)c1	inactive	–
CS(=O)(=O)N(CC(=O)N1CCOCC1)c1ccccc1Br	inactive	–
Cc1cccc(Oc2nc(-c3ccncc3)nc3ccccc23)c1	inconclusive: 23.1 µM [inhibitor, single point]	–
CC(=O)Nc1ccc(S(=O)(=O)N2CCC(C(=O)c3ccc(F)cc3)CC2)cc1	inconclusive: 20.6 µM [inhibitor, single point]	–
O=C(NCc1ccccn1)C(=O)NCC1OCCN1C(=O)c1ccc(Cl)cc1 (configuration not stated)	inactive	–
O=C(COC(=O)c1cc(-c2cccs2)nc2ccccc12)NCc1ccco1	inconclusive: 14.6 µM [inhibitor, partial curve, poor fit]	–
CCCCN(CC)CCNC(=O)c1nn(-c2ccc(OC)cc2)c(=O)c2c1c1ccccc1n2C	inconclusive: 23.1 µM [inhibitor, single point] and inconclusive: 10.3 µM [inhibitor, partial curve]	–

— PubChem BioAssay AID686979 (National Center for Advancing Translational Sciences (NCATS), 2013)
